Assay results: PubChem BioAssay AID1745853 (National Center for Advancing Translational Sciences (NCATS), 2022)
The list shows a part of the results. The main result of the screen is listed elsewhere. These columns were measured beside it and carry no call.

Key:
Experiment in all cases: Primary Screen for Target Class Profiling of Small Molecule Inhibitors of Methyltransferases
[1] = target: Glycine N-methyltransferase (Homo sapiens) (UniProt Q14749); conditions: purified enzyme, MTase-Glo SAH luminescence; measured here: GNMT inhibition; at 40 µM; stronger effect = lower value
How it was run: (§1)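 Each enzyme was assayed with SAM and its substrate. SAH formation detected by MTase-Glo luminescence; single-point 40 uM screen[…].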

[2] = target: Guanidinoacetate N-methyltransferase (Homo sapiens) (UniProt Q14353); conditions: purified enzyme, MTase-Glo SAH luminescence; measured here: GAMT inhibition; at 40 µM; stronger effect = lower value
How it was run: as §1

[3] = target: Histamine N-methyltransferase (Homo sapiens) (UniProt P50135); conditions: purified enzyme, MTase-Glo SAH luminescence; measured here: HNMT inhibition; at 40 µM; stronger effect = lower value
How it was run: as §1

[4] = target: Nicotinamide N-methyltransferase (Homo sapiens) (UniProt P40261); conditions: purified enzyme, MTase-Glo SAH luminescence; measured here: NNMT inhibition; at 40 µM; stronger effect = lower value
How it was run: as §1

[5] = target: Phenylethanolamine N-methyltransferase (Homo sapiens) (UniProt P11086); conditions: purified enzyme, MTase-Glo SAH luminescence; measured here: PNMT inhibition; at 40 µM; stronger effect = lower value
How it was run: as §1
% is scaled to controls: 0 for no effect and ±100 for the full control effect.

| SMILES | activity change, negative = inhibition [1] [%] | activity change, negative = inhibition [2] [%] | activity change, negative = inhibition [3] [%] | activity change, negative = inhibition [4] [%] | activity change, negative = inhibition [5] [%] |
| --- | --- | --- | --- | --- | --- |
| CCOc1ccc(CN2C(=O)c3cc(C(C)(C)C)nn3CC2(C)C(=O)NCc2ccccc2)cc1 (stereo not drawn) | 7.2 | 0.504 | 7.41 | 9.12 | 0.741 |
| CCN1CC2(CCN(Cc3cc4c(cc3OC)OCCCO4)CC2)OC1=O | -0.997 | -2.94 | -1.37 | -6.35 | -4.38 |
| COC[C@H]1NC(=O)CC[C@H]1C(=O)NCCCc1ccccc1 | 1.56 | 2.3 | -0.941 | 1.65 | -4.11 |
| Cc1ccc(F)c(OC2(C(=O)O)CCN(Cc3cccc(C)n3)CC2)c1 | -4.82 | -6.31 | -2.97 | -9.32 | -4.71 |
| CCCN1C(=O)c2cc3c(OC)ccc(OC)c3n2CC1(C)C(=O)NC1CCCCC1C (stereo not drawn) | -16.5 | -1.94 | 5.7 | -2.02 | -13.6 |
| CC1(C(=O)NC2CCCCC2)Cn2c(cc3sccc32)C(=O)N1C1CCCC1 (stereo not drawn) | 2.81 | 5.49 | -4.42 | 3.73 | -0.568 |
| CN1CCN(Cc2ccc(-c3cnc4c(OCc5ccccc5)nccn34)cc2)CC1 | -12.2 | -6.31 | -30.3 | -18.2 | -11.3 |
| COC(=O)N1CCC(n2ncc3c(N4CCOCC4)nc(-c4ccc(NC(=O)NC5CC5)cc4)nc32)CC1 | -15.8 | 10.9 | -7.9 | -14.2 | 1.59 |
| CCOc1ccc(CN2C(=O)c3cc4occc4n3CC2(C)C(=O)NC2CCCC(C)C2C)cc1 (stereo not drawn) | -5.85 | 2.41 | 2.54 | -9.63 | -3.44 |
| COc1ccc2cc3n(c2c1)CC(C)(C(=O)NC1CCCCC1)N(Cc1ccccc1)C3=O (stereo not drawn) | -0.423 | 0 | 2.14 | 0.615 | 1.28 |
| COc1cccc2sc(NC(=O)c3ccc4c(c3)OCCN(C3CCC3)C4)nc12 | -21.9 | -0.439 | -6.58 | -2.33 | 7.08 |
| COc1ccc(CN2C(=O)c3cc4sccc4n3CC2(C)C(=O)NC2CCCCCC2)cc1 (stereo not drawn) | 0.862 | 3.67 | 1.1 | -9.66 | -0.877 |
| CCCN1C(=O)c2cc(C(=O)N3CCCCC3)nn2CC1(C)C(=O)NC1CCCC1 (stereo not drawn) | 3.81 | 0 | 4.68 | 5.22 | 6.48 |
| CN1CCCC(CN(C)C(=O)c2cc(-c3cnn(CCO)c3)nc3ccccc23)C1 (stereo not drawn) | -5.02 | -4.29 | -18.9 | -7.14 | 5.28 |
| CC(C)(C)C1CCN(C(=O)n2ncc(C(O)(c3ccccc3)c3ccccc3)n2)CC1 | 2.37 | -3.93 | 2.9 | -28.6 | -4.92 |
| CC1(C(=O)NC2CCCCCC2)Cn2c(cc3sccc32)C(=O)N1Cc1ccccn1 (stereo not drawn) | 1.95 | 0 | 9.45 | -5.79 | 4.53 |
| Cc1ccc(CN2CCC3OCCN(Cc4ccccc4)C(=O)C3C2)o1 (stereo not drawn) | -6.87 | -5 | -2.79 | -14.8 | -9.77 |
| O=C(CC[C@H]1NC(=O)c2ccccc2NC1=O)Nc1nc(-c2cccnc2)cs1 | -9.03 | -1.33 | 0.279 | -2.61 | -0.111 |
| COCCC(=O)N1CC(c2nc(CCOc3cccc(C)c3)no2)C1 | 0.653 | -0.435 | 1.79 | 0.004 | -1.34 |
| COc1cc(C)c(C(=O)NC2C(C)OC(OC3CCC(C)C4C3C=C(C)C3/C(C)=C\CC/C(C)=C/C5(C)C=C(C(=O)O)C(C)CC56OC(=O)/C(=C(\O)C34C)C6=O)C(O)C2(C)O)c(O)c1 (stereo not drawn) | 0 | 6.15 | 6.31 | -9.9 | 2.21 |

| SMILES | activity change, negative = inhibition [1] [%] | activity change, negative = inhibition [2] [%] | activity change, negative = inhibition [3] [%] | activity change, negative = inhibition [4] [%] | activity change, negative = inhibition [5] [%] |
| --- | --- | --- | --- | --- | --- |
| Cc1ccccc1CN1C(=O)c2ccc(-c3ccco3)n2CC1(C)C(=O)NC1CCCCCC1 (stereo not drawn) | 2.17 | 0.392 | 3.61 | 3.85 | 1.53 |
| CCCN1C(=O)c2c(C(=O)Nc3cccc(Cl)c3C)ncn2CC1(C)C(=O)NCc1ccc(C)cc1 (stereo not drawn) | -1.58 | 0 | 6.74 | 2 | 2.65 |
| CN1C(=O)c2cc(NC(=O)c3ccc(Cl)cc3)ccc2N2CCN=C12 | -3.53 | 4.39 | 4.65 | 7.15 | -1 |
| Cc1ccc(NC(=O)Cn2nc3n(C(C)C)c(=O)c4ccc(C(=O)NC(C)C)cc4n3c2=O)c(C)c1 | 7.49 | 4.97 | 10.6 | 2.87 | 5.58 |
| CN1CC(=O)N(c2cccnc2)Cc2c1ncnc2N1CCN(c2ncccn2)CC1 | -4.95 | -8.68 | -6.2 | -16.3 | -6.47 |
| CCOc1ccccc1CNC(=O)c1cc2n(n1)CC(C)(C(=O)NCc1ccc(F)cc1)N(C)C2=O (stereo not drawn) | -2.55 | 0 | -5.18 | -6.33 | -6.42 |
| CC(C)NC(=O)c1ccc2c(=O)n(C(C)C)c3nn(CC(=O)N(C)c4ccc(F)cc4)c(=O)n3c2c1 | 5.52 | 0 | 3.86 | -0.946 | 4.67 |
| CCCOCC(=O)N1CCc2onc(-c3ccc(C(F)(F)F)cc3)c2C1 | -9.47 | -6 | -3.6 | -13.4 | -10.6 |
| CCC(C)NC(=O)c1ccc2c(=O)n(Cc3ccccc3)c3nn(Cc4cccc(OC)c4)c(=O)n3c2c1 (stereo not drawn) | 1.37 | 5.93 | -2.33 | 1.24 | 1.72 |
| CN(Cc1cccn1C)C(=O)C1CC1 | -4.17 | -4.54 | -0.111 | -10.6 | -5.71 |
| CCOc1c(CN(C)C(=O)Cn2cccc(OC)c2=O)cccc1OC | -83.3 | -68.5 | -14.2 | -18.3 | -23.3 |
| CCC(C(=O)N1CCN(c2ccccn2)CC1)n1ccc2cc(S(=O)(=O)N3CCCCC3)ccc21 (stereo not drawn) | 1.02 | 2.26 | 3.28 | 0.259 | 0.482 |
| CCOc1ccc(C(=O)Cn2nc3n(C)c(=O)c4ccc(C(=O)NC5CCCC5)cc4n3c2=O)cc1 | 1.05 | 0 | -2.86 | 0.634 | 2.53 |
| CNCCCN1c2ccccc2CCc2ccccc21 | 1.94 | 14.6 | -21.2 | -9.15 | 10.9 |
| C=C1C(O)CC2C(C(=O)O)=COC(O[C@@H]3O[C@H](COC(=O)/C=C/c4ccc(O)cc4)[C@@H](O)[C@H](O)[C@H]3O)C12 (stereo partly drawn) | 0 | -0.882 | 3.41 | -13 | 3.16 |
| COCCN1C(=O)c2c(NC(C)=O)c3cc(F)ccc3n2CC1(C)C(=O)NC1CCCCCC1 (stereo not drawn) | -6.24 | -4.9 | -3.37 | -6.12 | -2.42 |
| CC(C)(C(=O)NCC(F)(F)C(F)(F)F)C(=O)N[C@@H]1C(=O)Nc2ccccc2-c2ccccc21 |  | 3.43 |  | -18.9 | 2.73 |
| CN1C[C@H](NC2CCC2)CCC[C@@H](C(=O)NC2CCOCC2)CC1=O | -4.06 | -2.24 | -1.4 | -3.56 | -12.7 |
| CC12CCC(=O)C=C1C(O)CC1C2C(O)CC2(C)C1CC[C@]2(O)C(=O)CO (stereo partly drawn) | 1.33 | 7.09 | 11.2 | -4.83 | 8.07 |
| CCOC(=O)c1cc2n(n1)CC(C)(C(=O)NC1CCCC1)N(c1ccc(C)cc1C)C2=O (stereo not drawn) | 8.29 | 3.35 | 7.87 | 6.25 | 6.84 |

| SMILES | activity change, negative = inhibition [1] [%] | activity change, negative = inhibition [2] [%] | activity change, negative = inhibition [3] [%] | activity change, negative = inhibition [4] [%] | activity change, negative = inhibition [5] [%] |
| --- | --- | --- | --- | --- | --- |
| Cc1ccc(Cl)cc1NC(=O)N1CCn2c(C)ccc2C1C(C)C (stereo not drawn) | 2.48 | 0.097 | -7.13 | -7.95 | -0.667 |
| CN1CCN(CCCN2C(=O)c3ccc(-c4ccco4)n3CC2(C)C(=O)NC2CCCC2)CC1 (stereo not drawn) | -0.543 | 4.62 | 1.02 | 8.18 | 0.982 |
| O=C(CCc1nnc2n(Cc3ccccc3Cl)c(=O)c3ccccc3n12)NCc1ccc(F)cc1 | -0.244 | 0 | 13.2 | 11.7 | 1.86 |
| Cc1onc(C(=O)NCc2ccc3[nH]c(-c4ccc(F)cc4)c(C)c3c2)c1CO | -16.4 | -2.98 | -2.25 | -11.6 | -3.85 |
| CCc1ccccc1NC(=O)N1C[C@@H](F)C[C@H]1C(=O)N1CCc2ccccc2C1 | -5.51 | 1.41 | -2.06 | -4.54 | -1.84 |
| Cc1oc2c(c1C(=O)N1CCOCC1)CN(Cc1cccnc1)CC2 | -1.15 | -1.79 | 0.846 | 0.932 | -2.54 |
| CC1(C(=O)NCc2ccccc2)Cn2c(cc3occc32)C(=O)N1Cc1ccc(Cl)cc1 (stereo not drawn) | 3.58 | 0 | -10.5 | -12.7 | -25.8 |
| Cn1cc(CN2CCCC(COc3ccccc3C(=O)N3CCCCC3)C2)c2ccccc21 (stereo not drawn) | -7.97 | -7.9 | -50.8 | -17.4 | 2.65 |
| Cc1nc(-c2cn(C3CCCN(C(=O)c4cccc(Br)c4)C3)nn2)no1 (stereo not drawn) | 0.053 | 2.24 | 3.68 | -4.44 | 0.244 |
| COc1ccc(O[C@@H]2O[C@H](CO)[C@@H](O)[C@H](O)[C@H]2O)cc1OC | 2.83 | -2.97 | -9.47 | -16.2 | 4.31 |
| Cc1ccc(NC(=O)c2ncn3c2C(=O)N(C2CC2)C(C)(C(=O)NCCCOC(C)C)C3)cc1F (stereo not drawn) | -2 | 1.79 | -2.01 | -2.15 | -2.01 |
| CC[C@H]1CN(c2nc(N)c(C(N)=O)nc2Cl)CCN1C1CCN(Cc2ccc(Cl)cc2)CC1 | -1.03 | 5.14 | 0.836 | -59 | 2.09 |
| COc1ccc(CNC(=O)CCc2nnc3n(Cc4ccccc4Cl)c(=O)c4ccccc4n23)cc1 | -7.61 | -2.95 | -3.4 | -7.11 | -7.8 |
| Cc1c(-c2ccccc2F)[nH]c2ccc(CNC(=O)C3C=CCN3)cc12 (stereo not drawn) | -7.68 | -3.87 | -5.48 | -12.3 | -5.33 |
| CCCn1c(=O)c2cc(Cl)ccc2n2c(SCC(=O)NCc3ccc(Cl)cc3)nnc12 | 5.03 | 0 | 9.1 | 4.15 | 5.53 |
| Cc1cccc(Nc2nc3c(S(=O)(=O)c4ccccc4)nnn3c3ccccc23)c1 | -7.93 | -3.54 | -7.68 | -6.51 | -7.99 |
| CC(CCC1C(C(=O)O)=CC(=O)CC1(C)C)O[C@@H]1O[C@H](CO)[C@@H](O)[C@H](O)[C@H]1O (stereo partly drawn) | 0 | 4.19 | 1.85 | -7.98 | 5.67 |
| NC(N)=NC(=O)c1cnn(-c2cccc3ncccc23)c1C1CC1 | -5.03 | -4.7 | -19.6 | -59.6 | -11.9 |
| Cc1ccc(-c2noc([C@@H]3Cc4nc[nH]c4CN3C(=O)NC3CCCCC3)n2)cc1 | -10.6 | -8.7 | -8.69 | -15.4 | 10.1 |
